# From the supplement of paper PMC10441789
# The list shows a part of the results. Antibody binding of pooled human sera (four to six donors per pool; dilution not stated) to peptides of the Trypanosoma cruzi antigen TSSA on microarrays. Quantile-normalised fluorescence in arbitrary units, mean of duplicate arrays; higher = more binding. No active / inactive call. The uninfected pools are read here as the healthy donors of the same country. The strongest signals lie near the top of the scale (about 60,000).
# System: pooled sera of uninfected people, Colombia
# Assay: antibody binding signal (normalised fluorescence) (arbitrary fluorescence units); higher = stronger serum antibody binding to peptide
# Method: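 Microarray of 15-residue peptides over residues 30-55 of Trypanosoma cruzi TSSAII, each with 1 to 10 substitutions at naturally variable positions, probed with one serum pool per country.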
row,Sequence,antibody binding signal
1,TPPSGKDKKPAAGEA,262
2,EKKPAAGEAPSQPGA,160
3,GTDNKPATGETPSPP,158
4,SGTENKPAAGGAPSQ,262
5,NKPAAGETPSQSGAS,447
6,GTEKKTAAGGAPSPS,210
7,PPSGTEKKAAAGGTP,283
8,GTDKKAATGGTPSQS,651
9,SGTEKKAATGETPSQ,693
10,TENKAAAGETPSQPG,244
11,DNKTATGGTPSQPGA,579
12,GKENKAAAGETPSPS,122
13,GTEKKAAAGGTPSQS,146
14,TEKKTATGETPSQPG,240
15,KEKKAAAGGTPSPSG,97.9
16,GKEKKPAAGGAPSPP,104
17,GKDKKTATGETPSPS,103
18,KAATGGAPSPPGASS,122
19,TDNKPATGEAPSQPG,147
20,STPPSGKDKKPATGG,190

row,Sequence,antibody binding signal
1,KKAAAGETPSQSGAS,160
2,KAATGGTPSQSGASS,125
3,PPSGKENKAATGETP,1250
4,GKDKKTATGGTPSPS,126
5,SGTDNKAAAGGTPSP,532
6,GKEKKTAAGGTPSQS,117
7,NKPAAGEAPSQPGAS,497
8,GTDNKAATGEAPSQS,161
9,KEKKTAAGGTPSPSG,159
10,TDKKPAAGETPSQPG,664
11,GTENKPAAGGTPSPS,773
12,SSTPPSGKENKPAAG,672
13,EKKAAAGGTPSQSGA,139
14,TSSTPPSGKEKKTAA,217
15,KEKKTATGETPSQSG,78.2
16,SSTPPSGTDNKAATG,163
17,DNKAATGGTPSQPGA,371
18,TPPSGTEKKTATGGA,112
19,TPPSGKDKKPATGET,299
20,KENKAAAGETPSPSG,110
